According to the supplement of paper PMC7826260:
The other results are listed elsewhere or left out. The data describe in vitro nicking of single-stranded DNA by Rep domains (3 µM enzyme, 1 h, 37 °C); shown is the middle of each 90-letter strand. Numbers give uncut DNA relative to the enzyme-free pool, as log2; the lower, the more was cut; hits are not called. The scaling is to total reads; values above 0 arise when much of the pool is cut.

Assays:
Assay in all cases: uncleaved DNA left, log2 of reads against the no-enzyme library (log2 ratio); higher = less cleavage (more negative = more Rep cleavage of the k-mer); sequences stand for … in CTCGTCCG…ACCGGAGA
[1] = test system: T1, Rep nickase domain of Muscovy duck circovirus
T1 sequence (protein, residues 1-111, tag omitted): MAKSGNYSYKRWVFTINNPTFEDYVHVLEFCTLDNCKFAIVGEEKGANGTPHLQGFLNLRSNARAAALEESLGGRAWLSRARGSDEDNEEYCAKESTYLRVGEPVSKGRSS
Experimental: (§1)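 A pool of 90-nt single-stranded DNAs with seven random bases just before the constant AC of the nick site (name = the seven bases) was cut by 3 µM recombinant His6-SUMO-tagged Rep nickase domain (300 nM DNA, 50 mM HEPES pH 8.0, 50 mM NaCl, 1 mM MnCl2, 1 h, 37 °C, three replicates). Uncut DNA was amplified and sequenced.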

[2] = test system: T2, Rep nickase domain of banana bunchy top virus
T2 sequence (protein, residues 1-94, tag omitted): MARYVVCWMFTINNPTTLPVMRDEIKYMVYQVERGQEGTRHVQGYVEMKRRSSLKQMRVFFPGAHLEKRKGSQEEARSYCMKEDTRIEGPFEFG
Experimental: as §1

[3] = test system: T3, Rep nickase domain of cabbage leaf curl virus
T3 sequence (protein, residues 1-116, tag omitted): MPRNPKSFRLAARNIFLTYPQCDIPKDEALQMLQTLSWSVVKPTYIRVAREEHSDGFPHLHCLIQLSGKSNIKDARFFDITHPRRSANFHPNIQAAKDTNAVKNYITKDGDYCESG
Experimental: as §1

[4] = test system: T4, Rep nickase domain of chickpea chlorotic dwarf virus
T4 sequence (protein, residues 1-124, tag omitted): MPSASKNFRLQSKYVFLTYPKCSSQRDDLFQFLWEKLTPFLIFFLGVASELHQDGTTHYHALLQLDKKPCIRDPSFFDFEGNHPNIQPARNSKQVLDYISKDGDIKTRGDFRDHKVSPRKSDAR
Experimental: as §1

[5] = test system: T5, Rep nickase domain of faba bean necrotic yellows virus
T5 sequence (protein, residues 1-98, tag omitted): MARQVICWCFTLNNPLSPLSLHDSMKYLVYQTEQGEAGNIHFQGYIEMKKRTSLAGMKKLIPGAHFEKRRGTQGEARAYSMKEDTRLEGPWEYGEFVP
Experimental: as §1

[6] = test system: T6, Rep nickase domain of maize striate mosaic virus
T6 sequence (protein, residues 1-117, tag omitted): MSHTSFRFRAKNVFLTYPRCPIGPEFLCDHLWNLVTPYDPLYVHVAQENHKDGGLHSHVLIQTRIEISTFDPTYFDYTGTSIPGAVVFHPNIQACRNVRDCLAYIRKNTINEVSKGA
Experimental: as §1

[7] = test system: T7, Rep nickase domain of porcine circovirus 2
T7 sequence (protein, residues 2-116, tag omitted): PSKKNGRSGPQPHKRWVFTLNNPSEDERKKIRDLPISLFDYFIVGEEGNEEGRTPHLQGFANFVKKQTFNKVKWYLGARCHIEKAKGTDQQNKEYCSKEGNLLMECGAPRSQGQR
Experimental: as §1

[8] = test system: T8, Rep nickase domain of tomato golden mosaic virus
T8 sequence (protein, residues 1-124, tag omitted): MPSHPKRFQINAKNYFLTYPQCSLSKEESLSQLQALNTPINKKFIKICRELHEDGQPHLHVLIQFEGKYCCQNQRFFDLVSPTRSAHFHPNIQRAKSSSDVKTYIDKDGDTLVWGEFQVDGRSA
Experimental: as §1

[9] = test system: T9, Rep nickase domain of tomato yellow leaf curl virus
T9 sequence (protein, residues 1-136, tag omitted): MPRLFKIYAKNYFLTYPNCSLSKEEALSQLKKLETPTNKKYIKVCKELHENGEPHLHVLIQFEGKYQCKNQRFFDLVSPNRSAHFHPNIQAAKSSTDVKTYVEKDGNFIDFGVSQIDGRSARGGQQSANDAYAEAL
Experimental: as §1

[10] = test system: T10, Rep nickase domain of wheat dwarf virus
T10 sequence (protein, residues 1-137, tag omitted): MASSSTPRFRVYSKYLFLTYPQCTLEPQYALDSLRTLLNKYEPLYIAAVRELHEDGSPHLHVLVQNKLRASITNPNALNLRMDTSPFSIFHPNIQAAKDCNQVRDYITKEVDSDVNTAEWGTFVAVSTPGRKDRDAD
Experimental: as §1

Sequence | uncleaved DNA left (log2) [1] | uncleaved DNA left (log2) [2] | uncleaved DNA left (log2) [3] | uncleaved DNA left (log2) [4] | uncleaved DNA left (log2) [5] | uncleaved DNA left (log2) [6] | uncleaved DNA left (log2) [7] | uncleaved DNA left (log2) [8] | uncleaved DNA left (log2) [9] | uncleaved DNA left (log2) [10]
TCGTGAC | -0.093 | -0.0339 | 0.298 | 0.586 | -0.0298 | 0.442 | -0.0476 | -0.102 | -0.0165 | -0.0313
AAGCAAA | -0.0587 | -0.0966 | 0.0331 | -0.177 | -0.136 | -0.146 | -0.0329 | -0.0411 | -0.0266 | -0.0022
GTATATC | 0.117 | 0.125 | 0.375 | 0.956 | 0.127 | 1.68 | 0.085 | 0.0885 | 0.0977 | 0.212
GTACGGT | -0.0134 | 0.00898 | 0.393 | 1.04 | -0.156 | 1.9 | 0.043 | 0.106 | -0.0841 | 0.0665
TGTGACG | -0.0621 | -0.182 | -0.44 | -0.406 | -0.158 | -0.718 | 0.0112 | -0.12 | -0.157 | -0.136
TTTACAC | 0.058 | -0.00442 | 0.166 | -1.08 | 0.0659 | 0.0651 | 0.0516 | -0.0431 | 0.0763 | 0.0793
GATTAGC | 0.0622 | -0.104 | -0.161 | -0.121 | -0.0294 | -0.815 | 0.0187 | -0.000655 | 0.0941 | -0.0822
GCCAAGA | 0.0151 | -0.024 | 0.191 | 0.637 | 0.0543 | -0.33 | 0.156 | 0.0885 | -0.0256 | -0.0215
CTCTACG | -0.0743 | 0.0162 | -0.973 | -0.621 | -0.0394 | -0.986 | 0.0424 | -0.116 | -0.148 | -0.000323
GTCGTTG | 0.0641 | 0.0503 | 0.247 | 0.721 | -0.0342 | 1.52 | 0.0734 | 0.0925 | -0.0377 | 0.00446
AACCCTG | 0.0885 | 0.0842 | 0.248 | 0.843 | 0.0916 | 1.06 | -0.0974 | 0.0813 | 0.0137 | 0.102
CCAAGCC | 0.045 | -0.0583 | 0.105 | 0.636 | 0.0679 | 0.651 | 0.163 | -0.134 | -0.027 | -0.064
TAGCGAC | -0.0386 | -0.0562 | -0.00332 | 0.524 | -0.0372 | 0.851 | -0.00207 | 0.00654 | 0.00923 | -0.00408
CATACCG | 0.0445 | 0.0533 | -0.737 | -0.558 | 0.00944 | -0.934 | 0.0578 | -0.0427 | 0.0147 | -0.128
CGTTTCG | -0.0239 | -0.000616 | -0.67 | 0.227 | -0.0103 | -0.869 | 0.139 | -0.0108 | 0.0361 | -0.0671
